B1: LINE1-mini (parent)
chain: GGCAGAGCUCAACACAGCGUGGCAAAGUGGCUGUGGCUAGACUGCC

The source gives no read counts; variants with many changes may rest on few reads.

The data set covers variants of B1. Nature of the data set: self-cleavage, relative activity (ratio to wild type); higher = more cleavage; in vitro, sequencing; the parent is a self-cleaving ribozyme.
With G1C A6G C31G G35U C37A A41U, the self-cleavage came out at 0. As to G1A A26G G29C, the self-cleavage was found to be 0.18.

In the case of G1A G2A C8G C10A U20C G40A, the self-cleavage was 0.01. The result for G1C A4G C10U C13U C18U C37A reads 0.04. Consider G1A U9A A25U G35U, for which the self-cleavage is 0.2. Turning to G1A C10A U28G C37U, the self-cleavage is 0.02.

Consider G1A A24U G30A U34A A41C, for which the self-cleavage turned out to be 0.08.

For G1A G30U G33C G40A, the self-cleavage is 0.05. As for G1A G36C C37A, the self-cleavage was 0.04. On to G1A A11U G29U G30C G40U, for which the self-cleavage is 0.01.

G1A C13G G27A: the self-cleavage was found to be 0.03. For the variant G1A A6C U38A C42G, the self-cleavage worked out at 0.01. Take G1A C10G C37U C42A: the self-cleavage came out at 0.02. For the variant G1C A11C G17U C18A U20C G22C G29A, the self-cleavage came to 0. On to G1C C3U A11U U38C C45U C46G, for which the self-cleavage was found to be 0. As for G1A C3G G27U G29U, the self-cleavage was 0.44.

With G1A G7C U9C G29A G36U, the self-cleavage was 0.06. In the case of G1A C10G A25G U34A C45A, the self-cleavage turned out to be 0.04. Turning to G1C A4C A12G C13U A16C G44C, the self-cleavage was found to be 0.01.

As for G1A C10G A11U G17U C37A, the self-cleavage turned out to be 0.01. The result for G1A C15U C42A reads 0.08; that for G1A G29U U43A, 0.04; that for G1C C3A C18U C23A U38G, 0.02. Regarding G1A A4G G22C, the self-cleavage is 0.1.

Regarding G1A G2C G17U G35A G36C, the self-cleavage came out at 0.17.

In the case of G1A C15A G19A A24U, the self-cleavage came to 0.06. The result for G1A G7A G29U U34C C42G reads 0.09; that for G1C A6G A12C A14U C18G G22C U28A, 0.01; that for G1C A11G C15A G22C G27U, 0. Regarding G1C C3A U34A C37A, the self-cleavage came to 0.07. G1A G22C C23U G29U: the self-cleavage is 0.93. Turning to G1A C10U G33C C37G, the self-cleavage came to 0.04.

Turning to G1A C10G G27A, the self-cleavage is 0.09. For the variant G1A C8A C31U G44A, the self-cleavage was determined as 0.37.

Turning to G1A G2A G29C, the self-cleavage is 0.78. The result for G1A C3U A25C U28A U34G C37U A41U reads 0.08; that for G1A A6C C10G A14G, 0.04; that for G1A U9G U20C C45A, 0.09.

On to G1C C3G C15A A16U, for which the self-cleavage is 0.15. As to G1A A6C G35A G36C, the self-cleavage is 0.05. In the case of G1A A4U U9C C13A C45U, the self-cleavage came out at 0.05. Consider G1A A12C C18U G35C C42U, for which the self-cleavage came out at 0.01.

For the variant G1A G33U G40U C46A, the self-cleavage was 0.02. G1A A6C G21C G36C C42G C45G: the self-cleavage was 0.02. The result for G1A A14G G17A U28C reads 0.04; that for G1A G7A U9A C10A G33U, 0.09; that for G1A G5U C18U A24G G35U, 0.04. Take G1A G22C G27A: the self-cleavage amounted to 0.38. Consider G1A G5A U43C, for which the self-cleavage was 0.15. As to G1A A6C G33C, the self-cleavage was determined as 0.06. Regarding G1A G2U A25C G30U U32G C37G, the self-cleavage was found to be 0.05.

For G1C A25U C42A, the self-cleavage was determined as 0.01. As to G1A U9A A12U G19C G29A, the self-cleavage stood at 0.33.

As to G1A C15G G27U G33U, the self-cleavage came out at 0.04. The result for G1A C37G A41G U43A reads 0.03. Consider G1A G19C U32C U43G, for which the self-cleavage was 0. Regarding G1C A12G U32A C42U, the self-cleavage is 0.01.

Take G1A A12G A14C G22A G30A: the self-cleavage was 0.01.

For G1A U20A G40U, the self-cleavage was found to be 0.04. Regarding G1A A6C A24G, the self-cleavage was found to be 0.5. For G1A G5C C46G, the self-cleavage stood at 0.2.

Regarding G1C A11G U20C U32C G36U U38A, the self-cleavage amounted to 0.01. In the case of G1A G7U A14C C37U, the self-cleavage amounted to 0.01. Regarding G1A G29A G40A, the self-cleavage was determined as 0.19. With G1A G30U U32C C42G, the self-cleavage was 0.06. In the case of G1A G17U U20C G27U G35U, the self-cleavage stood at 0.03.

Take G1A A14C G17A: the self-cleavage stood at 0.02.

As to G1A A14C C37A U43C G44A, the self-cleavage came out at 0.21. Take G1A A14U U34A G40A: the self-cleavage came out at 0.06.

Regarding G1C A24U G30C, the self-cleavage is 0.02.

As to G1C C3G C18U C46G, the self-cleavage came to 0.1.

On to G1A A4U U20C U34A G35U, for which the self-cleavage amounted to 0.08. The result for G1A G17A C18A reads 0.06. The result for G1C A6G C23G U32C C42U reads 0; that for G1A C10U G17A C45G, 0.05; that for G1A G2C C37A G44C, 0.07. Take G1A G2C A39G: the self-cleavage was determined as 0.18.

Consider G1A G7U C13G A26C G29C, for which the self-cleavage amounted to 0.09. The same measure for G1C C3A G17A G27C: 0.06. For G1A G7U C10U G29C, the self-cleavage stood at 0.01.

With G1A A16U G19A G21C U32G, the self-cleavage was 0.09. Regarding G1C A14U U28C, the self-cleavage amounted to 0.01. The result for G1A G2U C31A A39U reads 0.04; that for G1A U9A G21U, 0.43.

Consider G1C A4U G7A U9G, for which the self-cleavage is 0.04. Turning to G1A G21C G36U, the self-cleavage is 0.04. On to G1A A6C A12C A26C U43A, for which the self-cleavage came to 0. Take G1A A4U G7U C18U: the self-cleavage amounted to 0.51. Turning to G1A C13U C15A G17C A26U A39C A41U U43A G44A, the self-cleavage turned out to be 0.01.

Consider G1C A14G U28A U34A, for which the self-cleavage is 0.03. For the variant G1A A11U G30U C46A, the self-cleavage was 0.13. The same measure for G1A G2C U34A: 0.06.

In the case of G1A G7A G22C C23A A24C, the self-cleavage came out at 0.25.

On to G1C A4U G22U A24U G27C A39C, for which the self-cleavage is 0.01. G1A G27C C37A: the self-cleavage was found to be 0.03. On to G1C A6U A14G U32G, for which the self-cleavage was found to be 0.03. As to G1C A14U G19U C37A, the self-cleavage was found to be 0.04. Turning to G1A A6U G33U G44U C45A, the self-cleavage was determined as 0.1. G1A G5U G19U C31G G36C A39U G40U: the self-cleavage stood at 0.

Turning to G1A G5A G7U C37U, the self-cleavage amounted to 1.15.

As to G1A C13G A16U, the self-cleavage was found to be 0.05. For G1A A26C U28G, the self-cleavage amounted to 0.3.

Take G1A C10A A14G G29C G33C: the self-cleavage is 0.04. Take G1A A4G A16C A25U: the self-cleavage was 0.08. On to G1A U43C C45U, for which the self-cleavage turned out to be 0.17. G1A A12G U20A: the self-cleavage stood at 0.05. In the case of G1A U20A U28C, the self-cleavage turned out to be 0.11. With G1A C10A A24U C37U, the self-cleavage was found to be 0.05. G1A C13G G22A U28C: the self-cleavage amounted to 0.13. On to G1A C23U A26U G40C, for which the self-cleavage was found to be 0.07. Regarding G1A C3A C15A A16C G19U C45U, the self-cleavage came to 0.36. In the case of G1A G5C G19C G27C G35C, the self-cleavage is 0.03. Turning to G1A A16G C23A, the self-cleavage was determined as 0.32. Regarding G1C A4C U43C, the self-cleavage amounted to 0.04. With G1A G36U G40A C42U, the self-cleavage amounted to 0.11.

For G1C A16G G17A, the self-cleavage is 0.01.

For the variant G1A A11G G27A, the self-cleavage was determined as 0.04. Consider G1A A11C C42U, for which the self-cleavage was found to be 0.06. The result for G1A G30U G40C C42A C46G reads 0.04. G1C C3G C18G: the self-cleavage stood at 0.06. Regarding G1A A11U C18G G22C C42U, the self-cleavage turned out to be 0.01.

Regarding G1A A14G C46G, the self-cleavage worked out at 1.07. Turning to G1A A4C G5U G17U A25U G27A U32A, the self-cleavage stood at 0.18.

Turning to G1A C8U A24G A25C, the self-cleavage worked out at 2.17.

In the case of G1C A16C U38G, the self-cleavage was 0. Consider G1C A25G G29C G33A G40A, for which the self-cleavage came to 0.

With G1A C8U C18G C31U C45U, the self-cleavage was found to be 0.45. Consider G1A G7A A11G A25G A26U U38G, for which the self-cleavage stood at 0.03.

G1A G19U C23A G35U: the self-cleavage was 0.11. With G1C A4G C37U, the self-cleavage turned out to be 0.05. For the variant G1A C23U U34C A39C, the self-cleavage was found to be 0.04. In the case of G1A U9A C31G, the self-cleavage is 0.36. As for G1C A6U C18U G30U A41U G44A, the self-cleavage came to 0.03. As for G1C A6G C45A, the self-cleavage came out at 0.02.

Regarding G1A U9C G19U G33A G35U, the self-cleavage was found to be 0.04. The same measure for G1C A11G A16C C23A G27A: 0; for G1A A11G G27A C45G: 0.02; for G1C A4U G7C: 0.13. With G1A A12C U28C C46U, the self-cleavage was found to be 0.05. With G1C A26U U34A, the self-cleavage was found to be 0.01.

G1A U38A G40U: the self-cleavage stood at 0.07.

Consider G1A U9G G17U G27C G35U, for which the self-cleavage was found to be 0.04.

On to G1C A25C U28C, for which the self-cleavage is 0.05.

Consider G1A G2C U20A C42A, for which the self-cleavage came out at 0.01. As for G1A C13U A24U U34A C37U, the self-cleavage was found to be 0.09. The same measure for G1A C3U G21A U28G G30U U32C G36C: 0.11; for G1A G5U G17A A24U: 0.06; for G1C A4G G5C A12U G27A: 0.01. With G1C A6G U28A G40C, the self-cleavage was 0.02.

As for G1A G19A A25C G36A, the self-cleavage turned out to be 0.08. As to G1A C13G C23A G30U G35C, the self-cleavage was determined as 0.29. For G1A U9C A25G A39C A41G, the self-cleavage amounted to 0.07. For the variant G1A C3A A14C G21U U34A, the self-cleavage came to 0.19. Consider G1A G2A A6C, for which the self-cleavage stood at 0.39.

Turning to G1A A12U C31A, the self-cleavage turned out to be 0.08. As for G1A G27U G33U U34G, the self-cleavage came out at 0.09. As to G1A C10A A16U G21C C46A, the self-cleavage was found to be 0.06. As to G1A G7U C15U G19C U34A, the self-cleavage worked out at 0.49. Turning to G1C A6U C8G G29U, the self-cleavage worked out at 0. Take G1A C10U C45G: the self-cleavage was determined as 0.37.

For G1A U38C C42A G44C C45A, the self-cleavage worked out at 0.05. The same measure for G1A G17A A26C: 0.28; for G1A U9C G21A A25C C31G A41G: 0.04. On to G1A G17U G30C, for which the self-cleavage stood at 0.1. In the case of G1A G36C C42A, the self-cleavage is 0.04.

On to G1C A6G G33A, for which the self-cleavage worked out at 0.01.

Consider G1A G40U C42G, for which the self-cleavage was 0.11.

Values taken from the RNAGym collection of RNA variant scans (doi:10.7554/elife.90254).
